Test results taken from the supplement of paper PMC3334620.
The full ranking holds about 33,000 sequences; the median of “E-score (-0.5 to 0.5)” is about -0.017, and the highest 2% start at about 0.3. This is one part of the list.

Target: T1, Sut1 (UniProt P53032)
T1 sequence: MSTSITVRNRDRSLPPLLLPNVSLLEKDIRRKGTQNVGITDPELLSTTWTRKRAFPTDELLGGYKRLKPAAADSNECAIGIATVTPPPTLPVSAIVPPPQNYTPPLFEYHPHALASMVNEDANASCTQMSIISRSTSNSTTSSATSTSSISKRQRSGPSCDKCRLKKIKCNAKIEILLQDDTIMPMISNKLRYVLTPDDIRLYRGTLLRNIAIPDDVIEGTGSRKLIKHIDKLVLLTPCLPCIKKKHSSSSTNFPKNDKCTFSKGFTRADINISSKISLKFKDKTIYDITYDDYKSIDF
Assay: PBM E-score (8-mer binding enrichment) (E-score (-0.5 to 0.5)); higher = stronger / more preferred TF binding; most listed sequences are background and not binding sites
Conditions: protein concentration: 200 nM; construct: GST-full length
Experimental: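 Universal 'all 10-mer' protein binding microarrays (Agilent AMADID 015681) probed with GST-tagged S. cerevisiae TFs (full-length or DBD) made by in vitro transcription/translation (PURExpress), about 100-200 nM. Bound TF was detected with fluorescent anti-GST. Each ungapped 8-mer (which stands for itself and its reverse complement) is scored by the PBM enrichment score (E-score), a modified Wilcoxon-Mann-Whitney statistic from -0.5 to +0.5, computed with the Universal PBM Analysis Suite. Scale: above 0.35 generally sequence-specific binding.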

| Sequence | PBM E-score |
| --- | --- |
| GCCATAAC | -0.208 |
| CAACATCG | 0.0971 |
| ACGGGTAT | 0.0157 |
| GGCAACTA | 0.0135 |
| GCTTTACA | 0.118 |
| ACATAGGG | -0.225 |
| GATAAACA | 0.203 |
| CGGATCAG | 0.0262 |
| GGCGTCCA | -0.162 |
| CAACGTTG | 0.0732 |
| AATTCGGA | 0.396 |
| CTCGTTAA | 0.1 |
| ACGTTTAA | 0.163 |
| ATCTTTGC | 0.121 |
| GCAAACAA | 0.0767 |
| AGTCAAAC | -0.135 |
| CGAGGCTA | -0.0685 |
| CAAGTAAC | 0.0878 |
| AACGAGTT | 0.09 |
| CAACTAAA | 0.25 |
| GCACTCTA | 0.0854 |
| ATGTATGA | 0.181 |

| Sequence | PBM E-score |
| --- | --- |
| GCCATCAC | -0.12 |
| CCCATTGA | -0.0299 |
| AACTAGTA | 0.0715 |
| AGAATACT | 0.112 |
| AAGTGTCC | 0.0158 |
| CCCAGAAG | -0.0542 |
| AGCCTTGG | -0.0726 |
| CAACCAGA | -0.0323 |
| GAACATCC | 0.167 |
| CCCATACC | -0.231 |
| GACGGCGC | -0.192 |
| AACTAGAT | 0.152 |
| AGCGCAAA | -0.0296 |
| GGAAAAAC | 0.184 |
| GTGCTAGA | -0.124 |
| GCAGTGAC | -0.155 |
| GGCATTCA | -0.138 |
| ACGAAGCC | 0.0745 |
| GACCACGA | -0.184 |
| ATGACGTG | -0.134 |
| CACGCGTA | -0.0939 |
| AATGCTGC | -0.128 |

| Sequence | PBM E-score |
| --- | --- |
| CTGTACCA | -0.0498 |
| ACACTAAG | -0.0951 |
| TCTATGCA | 0.0041 |
| AAGTGTGA | -0.119 |
| GCCACGCA | -0.166 |
| CAAGGGGG | -0.199 |
| CCGTACAC | -0.153 |
| ATCTGGAA | -0.156 |
| AGTTACAA | 0.136 |
| ATAGTAAT | 0.2 |
| AGACCAGG | -0.0902 |
| CGTCCTAC | -0.19 |
| TCCTTACA | 0.0128 |
| CGGCTGAA | -0.00862 |
| ATCAATCA | 0.189 |
| CACATTGG | -0.041 |
| CCTTCGGC | -0.233 |
| GCAAGACC | -0.1 |
| CCGTGTGC | 0.0764 |
| TAGGTTGA | 0.0152 |
| ATCTGGAG | -0.0362 |
| GGACAGCC | -0.00183 |

| Sequence | PBM E-score |
| --- | --- |
| GGCCGACA | -0.0715 |
| CGCAGCCC | -0.0392 |
| GCGCTAGC | -0.26 |
| AACCCTCA | -0.0699 |
| CGGCTTCC | 0.0133 |
| AGCGGCCG | 0.0454 |
| AGGCTGCA | -0.167 |
| ACTGAACT | 0.122 |
| GACCTATA | 0.206 |
| GTGTATTA | 0.274 |
| GGGAGAAA | -0.0502 |
| CCGGCTAG | -0.155 |
| GGCCACCC | -0.157 |
| CAGGTTGC | -0.135 |
| AGTGCACT | 0.178 |
| AAACCGGC | 0.0626 |
| GCTTGCAC | -0.0538 |
| CCTATCAC | -0.087 |
| AGGAATAT | -0.00657 |
| ATTAGGCA | -0.0605 |
